Each structure is given as a SMILES string. The list shows a part of the results.

The experiment concerns T1, C. trachomatis L2/434/Bu expressing GFP (CTL2-GFP).
T1 construct: L2/434/Bu GFP intracellular growth in HeLa cells
Further details: species or system HeLa; C. trachomatis total inclusion area by high-content imaging, normalised to DMSO. The settings on record: total inclusion area; 28.5 h, 10 µM; inhibitor. In a few lines: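 High-content imaging followed the bulk GFP/resorufin measurement: fixed, Hoechst-stained cells were scored for GFP inclusions and host nuclei per well. Total inclusion area and count served as growth proxies, nuclei number as the viability proxy. MIC calculation matched the bulk assay.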
For the compound `COc1ccc(CN2CCCN(C(=O)c3ccc(F)cc3Br)CC2)cc1` [CBK251752], the “% of control remaining” value is 71.4332.

Consider `Cc1cccc(C)c1NC(=O)CN1CCC(Oc2cncc(OCc3cccnc3)n2)C1` (stereo not drawn) [CBK084460], for which the “% of control remaining” value was 81.6888. With `COC(=O)[C@H]1CN(C(=O)c2ccco2)C[C@@H]1c1ccc(F)cc1` [CBK283733], the “% of control remaining” value worked out at 92.7721. The result for `O=C(NC(=S)Nc1cccc(-c2nc3ncccc3o2)c1)c1cc([N+](=O)[O-])ccc1N1CCOCC1` [CBK268756] reads 89.992; that for `N#Cc1ccc(Oc2ccc(C(=O)C(=O)c3ccccc3)cc2)cc1C#N` [CBK260959], 88.8469. The result for `CCOC(=O)c1c(-c2ccc(C)o2)csc1NC(=O)CN1C(=O)c2ccccc2C1=O` [CBK267699] reads 90.25; that for `Cc1c(Nc2nc3nonc3nc2Nc2cccc(Cl)c2)c(=O)n(-c2ccccc2)n1C` [CBK263073], 82.0514. Turning to `COC(=O)CCc1ccc(S(=O)(=O)N2CCN(Cc3cc(C)c(O)c(C)c3)CC2)cc1` [CBK062814], the “% of control remaining” value is listed as 108.331. The result for `CCN(CC)C(=O)c1sccc1NS(=O)(=O)c1cc(Br)c(Cl)s1` [CBK004599] reads 67.1422. As for `CC(O)CNCCNc1c(Cl)cccc1[N+](=O)[O-]` (stereo not drawn) [CBK262802C], the figure is 104.685; as for `CC(C(=O)N1CCC(O)(c2ccccn2)CC1)c1ccccc1` (stereo not drawn) [CBK282396], 121.962. As for `CCCCCn1c(Cc2ccccc2)n[nH]c1=O` [CBK013059], the figure is 75.1263. For the compound `CCCCOc1ccc(-c2nnn(CC(=O)Nc3ccccc3)n2)cc1` [CBK070609], the “% of control remaining” value stood at 95.3207.

With `COc1ccc(Br)cc1C1CC(=O)Nc2c(-c3cccc(F)c3)csc21` (stereo not drawn) [CBK294442], the “% of control remaining” value is 23.1085. With `COc1ccc(-n2c(Cc3ccccc3)nnc2SCC(=O)c2ccccc2)cc1` [CBK265989], the “% of control remaining” value is on record as 69.0548. The result for `O=C(CSCc1ccccc1Br)Nc1ccccc1-c1ccccc1` [CBK265959] reads 104.647. Turning to `CCN(CC)C(=O)[C@@H](C)C1CC[C@@]2(C)CC[C@H](NC(=O)C3CC3)[C@@H](C)[C@@H]2[C@H]1O` (stereo partly drawn) [CBK289443], the “% of control remaining” value stood at 109.417. As for `COc1ccc(C(=O)N2CCN(c3nc4c(s3)c(C)nn4C)CC2)cc1` [CBK307457], the figure is 62.4272; as for `CCCC/C=C/c1cncc(N[C@@H](C)c2ccccc2)n1` [CBK065472], 89.4697. As to `CC(C)NC(=O)c1sc2ccccc2c1C1CN(Cc2cccc3ncccc23)CCO1` (stereo not drawn) [CBK285879], the “% of control remaining” value is listed as 94.5746. For `C=C(C)CN1CCN(C(=O)c2c(C)oc3ccc(O)cc23)CC1` [CBK282626], the “% of control remaining” value came out at 96.918. Turning to `Cc1ccc(CN(CCN(C)C)Cc2c(C)nc3sccn23)o1` [CBK283229], the “% of control remaining” value is listed as 103.016. Turning to `CC1CCC(C(N)=O)CN1c1cc(=O)n2ccccc2n1` (stereo not drawn) [CBK304835], the “% of control remaining” value worked out at 96.9735. As for `O=C(O)C1CCCN1C(=O)NCc1c(Cl)cccc1Cl` (stereo not drawn) [CBK161383], the figure is 41.4761; as for `CN1C(=O)CN(C2CCCCC2)C1=O` [CBK116320], 119.744. As to `O=C(C1=C(O)C(=O)N(CCCN2CCOCC2)C1c1cccnc1)c1cccs1` (stereo not drawn) [CBK264555], the “% of control remaining” value amounted to 116.619. As for `COc1ccc(CCC(=O)N2CCCC2c2cc(Nc3nccs3)cc(C)n2)cc1` (stereo not drawn) [CBK285939], the figure is 96.7236; as for `O=C(Nc1nc(-c2ccccc2)cs1)c1ccc(Br)cc1` [CBK068003], 119.121. With `CN(C(=O)c1ccc(-n2nncc2-c2ccccc2)cc1)c1ccccc1` [CBK288107], the “% of control remaining” value is given as 93.9616. Turning to `CCS(=O)(=O)Nc1cc(Cl)ccc1C` [CBK111350], the “% of control remaining” value came out at 106.443.

In the case of `Cc1ncc2c(n1)[C@@H]1CN(C(=O)Cc3cccs3)C[C@@H]1CC2` [CBK284491], the “% of control remaining” value is 103.789. Regarding `COc1ccc(N2CCN(Cc3cc([N+](=O)[O-])ccc3Cl)CC2)cc1` [CBK261571], the “% of control remaining” value was determined as 99.5782. As for `CCOC(=O)c1csc(C2CCCN2C(=O)CCc2ccccc2O)n1` (stereo not drawn) [CBK305448], the figure is 101.597. The result for `O=C(O)CCCCCN1C(=O)C2CC=CCC2C1=O` (stereo not drawn) [CBK286534] reads 91.9244; that for `CC(=O)Nc1cccc(Oc2nccnc2/C=C/c2ccccc2)c1` [CBK106881], 104.203. As for `Cc1ccc(-c2nnc3ccc(SCC(=O)NC4CCCC4)nn23)cc1` [CBK287523], the figure is 106.583; as for `CC(C)S(=O)(=O)n1ccn(-c2ccc3c(c2)OCO3)c1=O` [CBK106630], 94.4237; as for `CCC(=O)Nc1ccccc1C(=O)C(=O)O` [CBK219398], 100.365. As to `Cc1c(OCCC2CCCCN2C)ccc2c(=O)cc(N3CCOCC3)oc12` (stereo not drawn) [CBK016644], the “% of control remaining” value was 137.762. For the compound `Cc1ccccc1NC(=O)CC1c2ccccc2CC(C)(C)N1C` (stereo not drawn) [CBK262567], the “% of control remaining” value was found to be 101.377. The result for `CCCn1nc(C)c(CN(C)Cc2n[nH]c3c2CCCC3)c1C` [CBK282600] reads 105.168; that for `O=C(CSc1nc2ccccc2o1)N1c2ccccc2Sc2ccccc21` [CBK221524], 74.9715; that for `O=C(C1C2CCCCC21)N1CCC(Oc2ccc(F)cc2)CC1` (stereo not drawn) [CBK282065], 72.1037. As for `NC(=O)c1c(NC(=O)COc2ccccc2[N+](=O)[O-])sc2c1CCC2` [CBK262819], the “% of control remaining” value is 90.0909. As for `COc1ccc(CCCC(=O)N2CCN(c3ccccc3OC)CC2)cc1OC` [CBK091495], the figure is 98.1227. Regarding `COc1ccc(-c2cc(C(=O)Nc3nc4c(OC)cccc4s3)cnc2-c2ccccc2)cn1` [CBK036681], the “% of control remaining” value came out at 68.4228. As for `Nc1ncc(-c2cccc3ccccc23)nc1Nc1ccc2[nH]ccc2c1` [CBK063659], the figure is 120.539; as for `O=C(O)C1CSC(c2cc3ccccc3o2)N1` (stereo not drawn) [CBK019502], 71.4641. As for `C#CCNS(=O)(=O)c1ccc(C(=O)Nc2ccnn2Cc2ccccc2)cc1` [CBK297727], the figure is 103.23; as for `COCCc1noc(CC2CCN(c3ncc(Cl)cn3)CC2)n1` [CBK304172], 78.8428. The result for `Cc1cc(S(=O)(=O)N(CCC#N)c2ccccc2)c(C)cc1Cl` [CBK043618] reads 107.464.

Source of the values: PMC12040169 (PLOS Biology, 2025).
